In PubChem BioAssay AID360 (National Center for Advancing Translational Sciences (NCATS), 2006):
In all, about 48,000 compounds went through this assay and about 550 (1.1%) were called active. Not shown: some 4% with an inconclusive outcome. Rule as the data show it: active = potency below about 15 µM; inconclusive = mostly about 16 µM to 33 µM; inactive = weaker than that. Some of the results follow.

Target: Lysosomal acid glucosylceramidase (Homo sapiens) (UniProt P04062)
Test: Glucocerebrosidase;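 also: the screen sought inhibitors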
Settings: purified enzyme, resorufin glucoside fluorescence (screen aimed at inhibitors), 20 min; series mostly up to 77 µM
Procedure, shortened: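 Wild-type enzyme at 0.2 nM final in 50mM citric acid/KH2PO4, 10mM sodium taurocholate, 0.01% tween-20, pH 5.9, with resorufin beta-D-glucopyranoside at 30 uM final. Compounds titrated, 20 min at RT, red fluorescence read; AC50 from titration.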
Potency is read from the fitted curve at half-maximal effect.

UniProt P04062, sequence (P04062 whole entry, looked up): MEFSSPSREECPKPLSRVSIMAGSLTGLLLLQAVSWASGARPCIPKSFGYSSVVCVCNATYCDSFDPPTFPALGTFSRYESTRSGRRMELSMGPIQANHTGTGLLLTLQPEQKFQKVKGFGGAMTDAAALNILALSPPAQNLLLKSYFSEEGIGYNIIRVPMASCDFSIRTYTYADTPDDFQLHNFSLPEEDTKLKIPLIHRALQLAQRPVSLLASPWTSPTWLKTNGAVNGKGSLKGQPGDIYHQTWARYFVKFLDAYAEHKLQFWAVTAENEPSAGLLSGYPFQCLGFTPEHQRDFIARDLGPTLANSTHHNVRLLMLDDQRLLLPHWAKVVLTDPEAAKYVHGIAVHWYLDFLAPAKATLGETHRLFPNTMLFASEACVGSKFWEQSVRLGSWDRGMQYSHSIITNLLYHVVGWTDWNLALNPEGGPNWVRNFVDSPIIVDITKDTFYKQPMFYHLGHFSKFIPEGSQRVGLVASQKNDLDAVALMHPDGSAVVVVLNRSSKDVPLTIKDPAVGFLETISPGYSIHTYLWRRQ

Potency, inactive:
CCOc1ccc2nc(NC(=O)Cn3cnc4c3c(=O)n(C)c(=O)n4C)sc2c1 > 76.9 µM
NC(=O)CN1CCCN(S(=O)(=O)c2ccc(Br)cc2)CC1 > 76.9 µM
CC(CN(C)Cc1ccccc1)OC(=O)c1cccs1 (centres undefined) > 76.9 µM
COC(=O)C1=CN(C)C=C(C(=O)OC)C1c1ccccc1Cl > 76.9 µM
O=S(=O)(c1ccc(Cl)cc1)c1ccccn1 > 76.9 µM
O=C(O)c1ccc(F)c(S(=O)(=O)Nc2ccccc2Cl)c1 > 76.9 µM
Cc1cc(C(=O)N(C)Cc2ccc(Br)cc2)no1 > 76.9 µM
CCOC(=O)c1c(C)c(C(=O)NCCN2CCOCC2)c(C)n1C > 76.9 µM
COc1ccccc1C(=O)Nc1cccc(N(C)S(C)(=O)=O)c1 > 76.9 µM
COc1ccc(-n2c(=O)cc(N3CCN(c4ccccc4F)CC3)[nH]c2=O)cc1 > 76.9 µM
CCOC(=O)N1CCC(NC(=O)C2CCN(S(=O)(=O)N3CCCC3)CC2)CC1 > 76.9 µM
CC(C)C1N=C2c3ccccc3N=C(SCc3cc(=O)n4cc(Cl)ccc4n3)N2C1=O (centres undefined) > 76.9 µM
O=C(NCC1CCCO1)C1CCN(S(=O)(=O)c2cccc3nonc23)CC1 (centres undefined) > 76.9 µM
CCCCc1cc(=O)oc2c(CN3CCCC3)c(O)c(Cl)cc12 > 76.9 µM
CCOc1cc(C)nc(N2CCC(C(=O)Nc3ccccc3OCC)CC2)n1 > 76.9 µM
COc1ccc2nc(NC(=O)C3CCN(S(=O)(=O)c4cccc5nsnc45)CC3)sc2c1 > 76.9 µM
Cc1ccc(NS(=O)(=O)c2ccc(OCC(=O)NCc3ccco3)cc2)cc1 > 76.9 µM
O=C(NCCCCC(NC(=O)C1CCCCC1)C(=O)O)c1ccccc1 (centres undefined) > 76.9 µM
Clc1cccc(-c2nn3c(-c4ccncc4)nnc3s2)c1 > 76.9 µM
Cn1c(=O)[nH]c(=O)c2c1nc(N1CCOCC1)n2CCSc1ncccn1 > 76.9 µM
O=C(NCc1cccnc1)C1CCCCN1S(=O)(=O)c1ccc(F)cc1 (centres undefined) > 76.9 µM
CC(=O)NC(C1C(=O)CC(C)(C)CC1=O)(C(F)(F)F)C(F)(F)F > 76.9 µM
O=S(=O)(NCCc1ccccn1)c1ccc(F)c(F)c1 > 76.9 µM
O=C(NCCCN1CCN(Cc2ccccc2)CC1)C1CCN(c2nnc(-n3cccc3)s2)CC1 > 76.9 µM
COCC(=O)Nc1nc2n(n1)C(c1ccccc1)CC(c1ccc(OC)cc1)N2 (centres undefined) > 76.9 µM
Cc1cc(NC(=O)c2cnn3cccnc23)n(-c2ccccc2)n1 > 76.9 µM
C=CCn1c(O)c(CN2CCOCC2)c(C)c(C#N)c1=O > 76.9 µM
Cc1ccc(Cn2c(-n3nc(C)cc3C)nc3c2c(=O)[nH]c(=O)n3C)cc1 > 76.9 µM
Cc1cc(C)c(C#N)c(SCC(=O)CC(=O)OC(C)C)n1 > 76.9 µM
O=C(O)CCc1ccc(-c2ccc(F)cc2)n1CC(=O)O > 76.9 µM
Cc1nc2ccc(S(=O)(=O)N(C)CC(=O)NCc3ccc4c(c3)OCO4)cc2s1 > 76.9 µM
Cc1cccc(C)c1NC(=O)CSc1nnc([C@@H]2CCCN2C(=O)OC(C)(C)C)o1 > 76.9 µM
CCCC(=O)NC1=C(C#N)C2(CCCC2)Cc2ccccc21 > 76.9 µM
COc1ccc(N2C(=O)CC(Nc3ccc(N4CCOCC4)cc3)C2=O)c(OC)c1 (centres undefined) > 76.9 µM
CCOC(=O)CSc1nnc(CSc2nc3ccccc3c(=O)[nH]2)n1-c1ccccc1 > 76.9 µM
Cc1nc2c(-c3ccc(F)cc3)c(C)nn2c(N2CCOCC2)c1C > 76.9 µM
CCn1c(O)c(/C=N/n2cnnc2)sc1=S > 76.9 µM
O=C(COC(=O)c1cccnc1Nc1cccc(C(F)(F)F)c1)NCCN1C(=O)CSC1=O > 76.9 µM
CC1CCCCN1C(=O)CSc1nnc(-c2cccnc2)n1C1CCCCC1 (centres undefined) > 76.9 µM
COc1ccc(OC)c(Nc2cc(C(=O)NCCCN3CCOCC3)c3ccccc3n2)c1
Cc1c(N=C2NC(=O)C(CC(=O)Nc3ccc(Cl)cc3)S2)c(=O)n(-c2ccccc2)n1C (centres undefined) > 76.9 µM
COC(=O)c1ccc(N/C(C)=C/C(=O)c2ccc(C)o2)cc1 > 76.9 µM
O=C(CCOc1ccccc1)OCC(=O)c1cc2ccccc2o1 > 76.9 µM
CCc1ccccc1NC(=O)C(CC)Sc1nc2cc3c(cc2c(=O)n1Cc1ccco1)OCO3 (centres undefined) > 76.9 µM
CC1CCN(c2ccc(C(=O)O)cc2)CC1 > 76.9 µM
Cc1cc(=O)c2n(Cc3ccccc3Cl)nc[n+]2[nH]1 > 76.9 µM
O=C(NCCc1ccccc1)c1noc2c1CCc1ccccc1-2 > 76.9 µM
CCN(CC)c1ccc(NC(=O)c2cc(OC)cc(OC)c2)c(C)c1 > 76.9 µM
Cc1ccc(C)c2[nH]c(=O)c(CN(CCCN(C)C)C(=O)NCc3ccccc3)cc12 > 76.9 µM
COCCNC(=O)c1cc2c(=O)n3cccc(C)c3nc2n(Cc2ccncc2)c1=N > 76.9 µM
CCOC(=O)C1CCCN(C(=O)CCNS(=O)(=O)c2ccc3c(c2)CCC(=O)N3)C1 (centres undefined) > 76.9 µM
COCC(=O)Nc1nc(-c2ccccc2)ns1 > 76.9 µM
Cc1ccc(C)c(/C(O)=C2\C(=O)C(=O)N(Cc3cccnc3)C2c2cccnc2)c1 (centres undefined) > 76.9 µM
CC(CN1CCCC1)OC(=O)COc1ccccc1 (centres undefined) > 76.9 µM
CCOCCCNC(=O)C1CCN(C(=O)Nc2ccc(Cl)cc2)CC1 > 76.9 µM
CN(c1ccccc1)S(=O)(=O)c1cccc(C(=O)N2CCN(c3ccccn3)CC2)c1 > 76.9 µM
Cc1cc(C(=O)Nc2nnc(C3CCCCC3)s2)no1 > 76.9 µM
Cc1csc(NC(=O)c2cnccn2)n1 > 76.9 µM
CCc1[nH]c(C)c(C(C)=O)c1C > 76.9 µM
O=C(CSc1nnc(COc2ccc(F)cc2)o1)N1c2ccccc2CCc2ccccc21 > 76.9 µM
CC1CCN(C(=O)COC(=O)c2n[nH]c3ccccc23)CC1 > 76.9 µM
CCOc1ccc2nc(NCCCNS(=O)(=O)c3ccccc3)c(C#N)cc2c1 > 76.9 µM
COc1nc(Nc2ccc(-c3nc4ccccc4o3)cc2)nc(N2CCOCC2)n1 > 76.9 µM
CN(C(=O)c1ccncc1)c1nnc(-c2ccccn2)s1 > 76.9 µM
O=c1[nH]c2ccccc2cc1-c1noc(-c2cccnc2)n1 > 76.9 µM
O=C(NCc1ccco1)c1ccc(Cl)c(S(=O)(=O)N2CCOCC2)c1 > 76.9 µM
O=C1CC(N2CCN(c3ccccc3Cl)CC2)C(=O)N1c1cccc(F)c1 (centres undefined) > 76.9 µM
COCCCN1C(=O)C(=O)/C(=C(/O)c2ccc3c(c2)OCCO3)C1c1ccc(C(=O)OC)cc1 (centres undefined) > 76.9 µM
COc1ccc(S(=O)(=O)N2CCCC(C(=O)NCc3ccccn3)C2)cc1 (centres undefined) > 76.9 µM
O=C1c2ccccc2C(=O)N1Cc1ccco1 > 76.9 µM
C1CCN=C(Nc2nn[nH]n2)CC1 > 76.9 µM
Cc1cc2c(cc1C)NC1(C(=O)Nc3ccccc31)C1=C(CC(C)(C)CC1=O)N2 (centres undefined) > 76.9 µM
Cc1c(-n2cc(C(=O)c3ccccc3O)cc(C#N)c2=O)c(=O)n(-c2ccccc2)n1C > 76.9 µM
CCCNS(=O)(=O)c1ccc(CCC(=O)NCc2cccnc2)cc1 > 76.9 µM
CC(C)(C)c1ccc2c(c1)N(CC(=O)O)C(=O)CO2 > 76.9 µM
O=C(CSc1nc2ccccc2n1CC(=O)N1CCCC1)NCc1ccc2c(c1)OCO2 > 76.9 µM
C=CCn1nnnc1SCC(=O)Nc1ccccc1C(=O)OC > 76.9 µM
CCNC(=O)N1c2ccc(OC)cc2C(C)=CC1(C)C > 76.9 µM
COc1cc2c(cc1OC)/C(=C/C#N)NC(C)(C)C2 > 76.9 µM
COc1ccc2c(c1)C(=NO)c1cc(OC)ccc1-2 > 76.9 µM
O=C(c1ccco1)N1CCN(C(=O)c2ccccc2Oc2ccccc2)CC1 > 76.9 µM
Clc1ccc(Cn2cccc2C2=NCCO2)cc1 > 76.9 µM
CN1CCN(Cc2nc(N)nc(Nc3ccc4c(c3)OCCO4)n2)CC1 > 76.9 µM
O=C(c1ccccc1)N1CCCCC(S(=O)(=O)c2ccccc2)C1=O (centres undefined) > 76.9 µM
COC(=O)n1c(=S)oc2cc(Cl)ccc21 > 76.9 µM
CN(C)c1ccc(NC(=O)c2cc3c(=O)n4ccccc4nc3n2C)cc1 > 76.9 µM
CCOC(=O)CSC1=Nc2ccccc2C2=NC(CC(=O)NCc3cccs3)C(=O)N12 (centres undefined) > 76.9 µM
COc1cc(S(=O)(=O)NC2CCCC2)ccc1Cl > 76.9 µM
N#CC1=C(c2ccccc2)N=P(N2CCOCC2)(N2CCOCC2)N=C1N1CCOCC1 > 76.9 µM
